Assay results: PubChem BioAssay AID624417 (National Center for Advancing Translational Sciences (NCATS), 2012)
In all, about 410,000 compounds went through this assay and about 6,400 (1.6%) were called active. The inconclusive results got no clear call from the source; some entries with a clear call stand among them for comparison. Calls come from the whole dose curve; as a rule, active = well fitted inhibition curve with a large enough effect; inconclusive = small, poorly fitted or top-dose-only effect; inactive = no such curve, though single readings can be large or run the other way. Where the call is inconclusive, the potency comes from a doubtful curve fit.

Biological target: Glucagon-like peptide 1 receptor (Homo sapiens) (UniProt P43220)
UniProt P43220, sequence (P43220 whole entry, looked up): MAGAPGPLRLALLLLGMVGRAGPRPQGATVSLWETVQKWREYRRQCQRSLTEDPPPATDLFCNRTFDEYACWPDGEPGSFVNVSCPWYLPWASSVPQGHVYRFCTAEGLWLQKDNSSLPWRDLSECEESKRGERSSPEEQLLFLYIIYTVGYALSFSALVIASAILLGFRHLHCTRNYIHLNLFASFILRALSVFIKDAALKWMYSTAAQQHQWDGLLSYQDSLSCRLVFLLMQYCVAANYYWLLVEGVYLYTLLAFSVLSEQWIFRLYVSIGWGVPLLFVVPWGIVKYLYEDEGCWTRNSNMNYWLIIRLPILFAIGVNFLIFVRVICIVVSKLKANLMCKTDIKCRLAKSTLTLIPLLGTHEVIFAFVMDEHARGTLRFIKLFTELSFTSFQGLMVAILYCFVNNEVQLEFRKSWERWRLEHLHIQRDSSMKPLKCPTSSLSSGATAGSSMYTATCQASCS
Assay: qHTS of GLP-1 Receptor Inverse Agonists (Inhibition Mode); note: nearly all actives have a fitted effect of over 55% in size
Conditions: HEK293 GLP-1R CRE-luciferase, luminescence, 24 h, GLP-1R form is constitutively active; series mostly up to 38.3 µM
Method in brief: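 Using stably transfected HEK293 (constitutively active GLP-1R, cAMP-luciferase reporter), compounds were incubated 24 hr and luciferase measured by luminescence.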
Potency is the fitted concentration of half-maximal effect; tags give direction and shape of the fitted curve.

Potency, active:
O=C(Nc1ccccc1Oc1ccccc1)c1cc([N+](=O)[O-])ccc1Cl 4.47 µM
O=C(Nc1cccc(C(F)(F)F)c1)Oc1ccc(Cl)c2cccnc12 12.6 µM

Potency, inactive:
Cc1cc(=O)oc2cc(OCC(=O)Nc3c(C)n(C)n(-c4ccccc4)c3=O)c(Cl)cc12
Cn1c(C(=O)NCc2ccc(F)cc2)cc2c(=O)n(C)c3ccccc3c21
O=C(CSc1nc2nn(-c3ccccc3)c(=O)c-2c2n1CCCCC2)c1ccc(O)c(O)c1
CCC(c1nc2ccccc2[nH]1)n1c(-c2ccnc(Cl)c2)nc2ccccc21 (configuration not stated)
CCCn1c(=O)c2sccc2n2c(CCCC(=O)N3CCN(c4ccccc4)CC3)nnc12
CC(=O)c1cccc(NC(=O)CCS(=O)(=O)c2cc(Br)cc3c2N(C(=O)C2CC2)CC3)c1
Cc1ccc(-n2c(CSc3nc(C)cc(C)n3)n[nH]c2=S)cc1
CCn1c(/C=C/c2c(C)n(CC)c3ccccc23)nc2ccccc2c1=O
O=C(/C=C/c1c(F)cccc1Cl)Nc1ncccn1
COc1ccc(CN(C)S(=O)(=O)c2nnc(NC(=O)c3ccccc3)s2)cc1OC
CC(=O)N1CCCc2cc(S(=O)(=O)N3CCC(C(=O)NCCC(C)C)CC3)ccc21
Cc1nc2c(C(=O)NCc3ccccc3Cl)cnn2c(C)c1Cc1c(F)cccc1Cl

Potency, inconclusive:
COc1ccc(C(=O)NCCc2sc(-c3cccc(F)c3)nc2C)cc1 8.91 µM [inhibitor, partial curve, poor fit]
Cc1ccccc1NC(=O)C(Cl)=C(Cl)Cl 15.8 µM [inhibitor, single point]
COc1ccccc1N(Cc1ccccc1)S(=O)(=O)c1cccc(C(=O)NCC2CCCO2)c1 (configuration not stated) 11.2 µM [inhibitor, partial curve, poor fit]
Cc1ccc(NS(=O)(=O)c2ccc(C)c(NC(=O)c3ccc(S(=O)(=O)N4CCCCCC4)cc3)c2)c(C)c1 5.62 µM [inhibitor, partial curve]
O=C(CN(Cc1ccccc1)S(=O)(=O)c1ccccc1)N/N=C/c1ccc([N+](=O)[O-])cc1 10 µM [inhibitor, partial curve, poor fit]
Cc1ccc(C2CC(=O)C=C(NCc3ccccc3)C2)cc1 (configuration not stated) 10 µM [inhibitor, partial curve]
NCCCNc1nc(N)c([N+](=O)[O-])c(NC2CCCCC2)n1 28.2 µM [inhibitor, single point]
Cc1ccnc(NC(=O)/C=C/c2cccs2)c1 3.55 µM [inhibitor, partial curve, poor fit]
CCCCn1nnnc1C(c1ccccc1)N1CCN(c2ccccc2)CC1 (configuration not stated) 10 µM [inhibitor, single point]
CCS(=O)(=O)c1ncc(N(Cc2ccco2)Cc2sccc2C)c(C(=O)Nc2cc(C)ccc2C)n1 28.2 µM [inhibitor, single point]
O=C(c1ccc(Br)s1)N1CCN(C/C=C/c2ccccc2)CC1 22.4 µM [inhibitor, single point]
Cc1ccc(/C=C2/Sc3ccccc3N(CC(=O)NCCCOC(C)C)C2=O)cc1 22.4 µM [inhibitor, partial curve, poor fit]
CCOc1ccc(S(=O)(=O)Nc2ccc3oc(C)c(C(=O)OCCOC)c3c2)cc1 6.31 µM [inhibitor, partial curve]
COc1ccc(NC(=O)CC2C(=O)N(c3ccc(Cl)cc3)C(=S)N2NC(=O)c2cccc(F)c2)cc1 (configuration not stated) 28.2 µM [inhibitor, single point]
FC(F)(F)c1nc2ccccc2n2c(-c3ccc(Cl)cc3Cl)nnc12 22.4 µM [inhibitor, single point]
CCOC(=O)C1(CCOC)CCN(C(=O)Cc2ccc3ccccc3c2)CC1 28.2 µM [inhibitor, single point]
COc1cc2c(cc1OC)-c1n[nH]c(=S)n1C(C)(C)C2 3.98 µM [inhibitor, full curve]
C#CCOC(=O)Nc1cccn(Cc2c(Cl)cccc2Cl)c1=O 3.98 µM [inhibitor, full curve]
COc1ccc(OC)c(C2CC(=O)c3c([nH]c(C(=O)OCC4CCCCC4)c3C)C2)c1 (configuration not stated) 28.2 µM [inhibitor, partial curve, poor fit]
COc1ccc(NC(=O)C(c2ccc(C(F)(F)F)cc2)n2c(=O)c(-c3cc4ccccc4[nH]3)nc3ccccc32)cc1 (configuration not stated) 20 µM [inhibitor, single point]
CCOC(=O)c1[nH]c2ccc(OCC)cc2c1NC(=O)CN1CCN(c2ccccn2)CC1 10 µM [inhibitor, partial curve, poor fit]
O=C(NCC(c1cccs1)N1CCOCC1)c1cn(-c2ccccc2)nc1-c1ccc(F)cc1 (configuration not stated) 6.31 µM [inhibitor, partial curve, poor fit]
COc1cc(OC)cc(C(=O)N2c3ccc(F)cc3CCC2C)c1 (configuration not stated) 28.2 µM [inhibitor, single point]
CC(C)(C)NC(=O)c1ccc(COc2ccc(Cl)cc2Cl)o1 5.62 µM [inhibitor, partial curve]
Cc1cccc(NC(=O)NC2CCCCCCC2)c1 14.1 µM [inhibitor, single point]
CC(C)N(C(=O)CC1ON(C)C(=O)N1c1ccc(Cl)cc1)C(C)C (configuration not stated) 11.2 µM [inhibitor, partial curve, poor fit]
CCCCCCCCN1C(=O)[C@H](CC(=O)N2CCCC2)C[C@@]2(C(=O)OC)CCCCC=C12 10 µM [inhibitor, single point]
CC1CCc2nc(NC(=O)COc3ccc(C(C)(C)C)cc3)sc2C1 (configuration not stated) 10 µM [inhibitor, partial curve, poor fit]
CC(C)(O)C#Cc1ccc(CN2CCN(Cc3ccsc3)C(CCO)C2)cc1 (configuration not stated) 20 µM [inhibitor, single point]
Cc1ccc(N2Cc3ccccc3C2=S)cc1 10 µM [inhibitor, partial curve]
CN(C)CCCNS(=O)(=O)c1ccc(Oc2ncc(C(F)(F)F)cc2Cl)cc1 7.94 µM [inhibitor, partial curve, poor fit]
COc1ccc(/C=C/CN2CCCC(C(=O)c3ccc(OC)c(F)c3)C2)cc1 (configuration not stated) 10 µM [inhibitor, partial curve, poor fit]
CC(NC(=O)/C(C#N)=C/c1ccc(N2CCOCC2)cc1)c1ccccc1 (configuration not stated) 7.94 µM [inhibitor, partial curve, poor fit]
COc1ccc(Cl)c(-c2cc(C(=O)Nc3ccc(C)c(NS(C)(=O)=O)c3)[nH]n2)c1 10 µM [inhibitor, partial curve, poor fit]
O=C(COc1ccc(Br)cc1Cl)c1ccc[nH]1 31.6 µM [inhibitor, single point]
CC1CCN(C(=O)C2Cc3ccccc3CN2S(=O)(=O)c2ccc(F)cc2)CC1 (configuration not stated) 3.55 µM [inhibitor, partial curve, poor fit]
CN(Cc1cc(Cl)cc(Cl)c1O)Cc1c(O)ccc2ccccc12 8.91 µM [inhibitor, partial curve, poor fit]
CCCCNC(=O)CSc1nc2ccc(Nc3nc(N4CCOCC4)nc(N4CCOCC4)n3)cc2s1 10 µM [inhibitor, single point]
Cc1cccc(-n2cc(-c3ccccc3)[nH]c2=S)c1 20 µM [inhibitor, single point]
OC(c1ccc(F)cc1)c1nc(-c2ccc(Cl)cc2)cs1 (configuration not stated) 28.2 µM [inhibitor, single point]
C1=CC2(C=C1)OC21CCC2(C=CC3(C2)OC3C2CCCCC2)CC1 (configuration not stated) 8.91 µM [inhibitor, partial curve, poor fit]
CNc1nc(-c2ccc3c(c2)CCN3C(=O)c2ccccc2F)cs1 28.2 µM [inhibitor, single point]
Cc1ccc(-n2nc3c(=O)n(CCCC(=O)NCc4ccco4)nc(C)c3c2C)cc1 10 µM [inhibitor, single point]
C=CCNC(=S)NNC(=O)COc1ccc2cc(Br)ccc2c1 4.47 µM [inhibitor, full curve]
Cc1ccn2cc(-c3ccc(Br)cc3)nc2c1 5.01 µM [inhibitor, partial curve, poor fit]
CCN(c1ccc(OC)cc1)S(=O)(=O)c1cc(-c2cc(C)no2)ccc1OC 22.4 µM [inhibitor, single point]
Cc1ccc(N(Cc2ccccc2)C(=O)CSC(C)C(=O)Nc2cc(C)on2)cc1 (configuration not stated) 6.31 µM [inhibitor, partial curve, poor fit]
O=c1c2ccccc2nc(COc2ccccc2)n1/N=C/c1cc([N+](=O)[O-])ccc1O 11.2 µM [inhibitor, partial curve, poor fit]
